Data on one molecule can be found in patent US20260116960A1 (SHANGHAI HONGCHENG BIOPHARMACEUTICAL, published 2026).

The target of experiment [1] is T1, human CTLA-4 protein (Acro, Catalog No. CT4-H52H9) (human, UniProt P16410 36-161).
T1 construct: Bought protein
As to the kind of experiment: ELISA, plate coated with human CTLA-4 protein. (In general: An ELISA detects its analyte on a solid surface through an enzyme-linked reagent.)

Experiment [2] has as its target T2, human PD-1 on the cell surface (human, UniProt Q15116 25-288).
T2 construct: whole, on cells; also called cell surface PD-1
As to the kind of experiment: flow cytometry, 293T-hPD-1 cells, batch FACS#2. How it is done:
After centrifugation at 300 g for 5 minutes, the supernatant was discarded. The antibodies were serially diluted 3-fold with FACS buffer to obtain two gradient series solution FACS #1 and FACS #2, with the starting concentration of 200 nM (Table 5, FACS #1) or 100 nM (Table 5, FACS #2, FIG. 2), respectively. Then 100 μL/well was added to a 96-well plate in triplicate, mixed, and incubated at 4° C. for 60 min. The plate was centrifuged and washed three times with FACS buffer. 100 μL/well of 1:800 diluted AF647-anti-hIgG(H+L) (Jackson, Catalog No.: 109-605-003) was added and incubated at 4° C. for 50 minutes. After washing the plate three times with FACS buffer, 100 μL/well of FACS buffer was added to resuspend the cells, and the fluorescence signal was detected on a flow cytometer (BECKMAN COULTER cytoFLEX). The binding activity was fitted using a four-parameter model to calculate the EC₅₀ value of each antibody binding to PD-1.

In experiment [3] the target is T3, human CTLA-4 on the cell surface (human, UniProt P16410 36-223).
T3 construct: whole, on cells; also called CHO-hCTLA-4 cells; CHOK1-hCTLA4 cells
As to the kind of experiment: flow cytometry, CHO-hCTLA-4 cells, batch FACS#4.

For experiment [4], the target named is T4, human VEGF165-his protein (Acro, Catalog No. VE5-H5248) (human, UniProt P15692-4 27-191).
T4 construct: Bought protein; also called hVEGF165-His; VEGFA; not shown: his tag
T4 sequence (looked up): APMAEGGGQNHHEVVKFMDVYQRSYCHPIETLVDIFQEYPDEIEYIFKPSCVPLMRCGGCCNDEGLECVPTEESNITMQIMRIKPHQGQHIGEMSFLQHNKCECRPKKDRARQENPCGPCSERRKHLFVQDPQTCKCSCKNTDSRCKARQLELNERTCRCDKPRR
As to the kind of experiment: competitive ELISA, VEGF165-His coated, biotin-human KDR.

For experiment [5], the target named is human PD-1 protein (Acro, PD1-H5257) (human, UniProt Q15116 part only). As to the kind of experiment: competitive ELISA, PD-1 coated, biotin-PD-L1 as labelled ligand. How it is done:
The next day, the plate was washed three times with PBS solution and blocked with 1% BSA-PBS solution at 37° C. for 1 hour. […] 100 μL of the antibody-protein mixture was added to each well of the blocked 96-well ELISA plate and incubated at 37° C. for 1 hour. After washing four times with PBST, 100 μL of Strep-HRP (BD, Catalog No. 554066) diluted 1:5000 was added to each well of the ELISA plate and incubated at 37° C. for 1 hour. After washing 4 times with PBST, TMB was used for color development. The absorbance at 450 nm and 630 nm was detected by a microplate reader, and OD450-OD630 was calculated. The fluorescence intensity was fitted using a four-parameter model, and the IC₅₀ value of the blocking activity of each antibody was calculated.

The target of experiment [6] is T2, human PD-1 on the cell surface. As to the kind of experiment: flow cytometry competition, 293T-hPD-1 cells, biotin-human PD-L1. How it is done: 50 μL of antibody solution serially diluted 3-fold in FACS buffer was added in triplicate, with a starting concentration of 200 nM. After mixing, incubated at 4° C. for 60 minutes. After washing three times with FACS buffer, 100 μL/well of 1:800 diluted PE Streptavidin was added and incubated at 4° C. for 50 min. After washing three times with FACS buffer, 150 μL/well of PBS was added to resuspend the cells, and the fluorescence signal was detected on a flow cytometer (BECKMAN COULTER cytoFLEX). The four-parameter model was used to fit the binding activity and the IC₅₀ value of the blocking activity of each antibody was calculated.
In general terms: Flow cytometry measures light scatter and fluorescence of single cells or particles in a stream.

Experiment [7] addresses T3, human CTLA-4 on the cell surface. As to the kind of experiment: flow cytometry competition, 293T-hPD-1-hCTLA-4 cells (PD-1 co-expressed), biotin-human CD80. On the procedure:
PD-1 and CTLA-4 are co-expressed on functionally exhausted T cells in the tumor microenvironment, and the expression level of PD-1 is higher than that of CTLA-4. […] 200 μL of the cells were added to a 96-well U-bottom plate, approximately 1.4×10⁵ cells/well. After centrifugation at 300 g for 5 minutes, the supernatant was discarded. […] After washing three times with FACS buffer, 100 μL/well of 1:800 diluted PE Streptavidin was added and incubated at 4° C. for 50 min. After washing three times with FACS buffer, 150 μL/well of PBS was added to resuspend the cells, and the fluorescence signal was detected on a flow cytometer (BECKMAN COULTER cytoFLEX). The binding activity was fitted using a four-parameter model, and the IC₅₀ value of the blocking activity of each antibody was calculated.

Experiment [8] has as its target T5, Biotinylated Human VEGF165 (Acro, Catalog No. VE5-H82Q0) (human, UniProt P15692-4 27-191, biotinylated (site not stated)).
T5 construct: Bought protein; also called Biotinylated-hVEGF165; Biotin-hVEGF165
T5 sequence (looked up): T4 sequence (looked up)
As to the kind of experiment: flow cytometry: antibody titrated on 293T-hPD-1-hCTLA-4 cells, detected with 2 ug/mL biotin-hVEGF165 and PE streptavidin. How it is done:
After centrifugation at 300 g for 5 minutes, the supernatant was discarded, and 100 μL of trispecific antibody solution serially diluted 3-fold with FACS buffer was added, with a starting concentration of 200 nM, and the same volume of FACS buffer was added as a negative control. After mixing, incubated at 4° C. for 60 minutes. After centrifugation and washing three times with FACS buffer, 2 μg/mL Biotin-hVEGF165 was added at 100 μL/well and incubated at 4° C. for 60 minutes. After centrifugation and washing three times with FACS buffer, 100 μL/well of 1:800 diluted PE Streptavidin (BD, Catalog No.: 554061) was added and incubated at 4° C. for 50 minutes. After centrifugation and washing three times with FACS buffer, 100 μL/well of FACS buffer was added to resuspend the cells, and the fluorescence signal was detected on a flow cytometer (BECKMAN COULTER cytoFLEX). The binding activity was fitted using a four-parameter model, and the EC₅₀ value of each antibody binding was calculated.

T2 sequence (Q15116 25-288): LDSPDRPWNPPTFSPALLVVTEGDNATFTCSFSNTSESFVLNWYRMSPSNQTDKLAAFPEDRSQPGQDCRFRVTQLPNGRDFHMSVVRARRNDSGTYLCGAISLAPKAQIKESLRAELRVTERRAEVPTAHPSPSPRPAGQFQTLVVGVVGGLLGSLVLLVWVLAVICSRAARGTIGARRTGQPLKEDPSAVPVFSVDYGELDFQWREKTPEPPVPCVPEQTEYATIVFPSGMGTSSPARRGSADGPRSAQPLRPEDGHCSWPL
T3 sequence (P16410 36-223): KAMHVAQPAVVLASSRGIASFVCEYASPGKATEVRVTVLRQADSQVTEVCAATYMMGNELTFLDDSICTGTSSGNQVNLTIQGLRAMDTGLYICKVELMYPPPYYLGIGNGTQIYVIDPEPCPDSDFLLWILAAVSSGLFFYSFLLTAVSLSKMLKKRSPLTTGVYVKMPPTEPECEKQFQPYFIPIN

B1: HC010-F8 (trispecific antibody, human IgG4 S228P, kappa)
heavy: EVQLVESGGGLVQPGGSLRLSCAASGFTFSSYGMSWVRQAPGKCLEWVSTISGGGRDTYYPDSVKGRFTISRDNSKNTLYLQMNSLRAEDTAVYYCARQNGITWFADWGQGTLVTVSSGGGGSGGGGSGGGGSGGGGSDIQMTQSPSSLSASVGDRVTITCRASESVDNYGISFMNWYQQKPGKAPKLLIYAASNQGSGVPSRFSGSGSGTDFTLTISSLQPEDFATYYCQQSKEVPWTFGCGTKVEIKGGGGSGGGGSGGGGSGGGGSEVQLVESGGGLVQPGGSLRLSCAASGYTFTNYGMNWVRQAPGKGLEWVGWINTYTGEPTYAADFKRRFTFSLDTSKSTAYLQMNSLRAEDTAVYYCAKYPHYYGSSHWYFDVWGQGTLVTVSSASTKGPSVFPLAPCSRSTSESTAALGCLVKDYFPEPVTVSWNSGALTSGVHTFPAVLQSSGLYSLSSVVTVPSSSLGTKTYTCNVDHKPSNTKVDKRV[human IgG4 Fc with S228P (EU numbers) not spelt out]AGGGGSGGGGSGGGGSGGGGSEVQLLESGGGLVQPGGSLRLSCAASGSIFSINHMAWYRQAPGKQRELVAGVNSRGTTNYVDSVKGRFTISRDNSKNTLYLQMNSLRAEDTAVYYCRALGGAVAAWGQGTLVTVSS
light: DIQMTQSPSSLSASVGDRVTITCSASQDISNYLNWYQQKPGKAPKVLIYFTSSLHSGVPSRFSGSGSGTDFTLTISSLQPEDFATYYCQQYSTVPWTFGQGTKVEIKRTVAAPSVFIFPPSDEQLKSGTASVVCLLNNFYPREAKVQWKVDNALQSGNSQESVTEQDSKDSTYSLSSTLTLSKADYEKHKVYACEVTHQGLSSPVTKSFNRGEC
notes: light: bevacizumab VL-kappa; also called H010-F8
Consider B1, for which the EC50 in experiment [1] was found to be 0.127 nM; in experiment [2] it was 1.81 nM; in experiment [3] it was 4.29 nM; in experiment [8] it was 5.06 nM. The IC50 in experiment [4] was determined as 4.19 nM; in experiment [5] it was 0.782 nM; in experiment [6] it was 5.5 nM; in experiment [7], 0.079 nM.

For orientation: EC50 means the concentration that produces a half-maximal response. The IC50 is the concentration that inhibits the measured activity by half.
